According to the supplement of paper PMC11417369:
± gives the standard deviation of the averaged measurements. Some of the results follow.

Tested on: PfAP2-LT AP2 domain (GST-tagged)
Assay: gcPBM binding intensity (ln(normalized median fluorescence intensity)); higher = stronger DNA binding
Summary of the method: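 Binding intensity is defined as the maximum Masliner-normalised natural-log median intensity across replicate spots for either probe orientation. It was measured on an Agilent 4 × 180k array of primer-extended double-stranded 36-bp intergenic genomic probes and negative controls, to which GST-tagged P. falciparum DNA-binding domains made in E. coli were applied for 1 h in 1× PBS with 1% milk, 0.2 mg/ml BSA, 0.5% salmon testes DNA and 0.03% Triton X-100. Detection was by Alexa488 anti-GST antibody and scanning at 488 nm.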

Sequence | gcPBM binding intensity (ln)
TTATTGTTTATTAAATGTACAGATTCGTTAAAATTA [XGTACX_site3041] | 8.37 ± 0.38
TTTTTATTGAGAACAGTGCAAATAACAAAAAAAAAA | 8.66 ± 0.52
ATTTGGCATAAACACACACACACACCCACCCACATA [CACACA_site8096] | 10.1 ± 0.37
TTATAATAAATATGAAGTACTATAAATATGGTATAT [XGTACX_site5448] | 8.72 ± 0.41
CACTAAAATGGACACACACACACACCGATATATATA [CACACA_site6139] | 10.1 ± 0.23
AATAAATATAGGAATACACACAATATAAATGTATTG [CACACA_site3366] | 9.07 ± 0.4
ATCGCATAAAGACAAGAACACACATATATATTGTAG [CACACA_site9229] | 9.03 ± 0.37
CATATATAAAATATATGTACTTATAGAACATAATTT [XGTACX_site1936] | 8.57 ± 0.42
CATTTTTTAAGCATCACACACGAAAGAACAAAGTGG [CACACA_site4755] | 8.94 ± 0.35
TTTTTTTTTTTAAGGTGTACAATAAAAATTTATGCA [XGTACX_site8860] | 8.23 ± 0.35
TGGAAAATTATAAGGTGTACATATAAGCTATTATAT [XGTACX_site118] | 8.76 ± 0.47
AGTATACATTCATTTTGTACTCAATGATTTGATAAC [XGTACX_site6787] | 8.81 ± 0.37
ATAATTATATTCCATACACACATATATTTAAAGGTT [CACACA_site2957] | 8.96 ± 0.32
TAATAAGTATAAAATAGTACATATAAATATATCAAA [XGTACX_site8834] | 8.81 ± 0.39
AGGAATAAATAATTAACACACACAATCTTTTTTTTT [CACACA_site9027] | 9.13 ± 0.35
ACTTTTTCACATAAAAATGATCCGATTAGTAATAAT [XGTACX_negctrl_site248] | 8.51 ± 0.26
AAATAAAAAAACTATTGTACTGAATACAAATTAAAT [XGTACX_site3793] | 8.73 ± 0.42
ATAATATTAGTAAACACACTCAAATTATATATGATA [CACACA_site5721] | 8.68 ± 0.43
CTGAGGAAGCTAATTACACACATGCATATTTTTTTT [CACACA_site2177] | 9.08 ± 0.28
ATTATCTTCAAGTATGTACACACTATATATAATAAA [CACACA_site2441] | 8.9 ± 0.47
ATCAAACAAAAAATAAAAAAATGCGACATGTGTACA [TGCATGCA_negctrl_site164] | 8.99 ± 0.49
TATAAAATTTAAATTATACACACTTAAGTAACATCA [CACACA_site531] | 8.68 ± 0.38
TTAATATTTTTAATTTGTACATATAATTAAATCTCT [XGTACX_site1736] | 8.53 ± 0.51

Sequence | gcPBM binding intensity (ln)
GAAAATTATGTATATTGTACAAATATTATATTAAAT [XGTACX_site2467] | 8.68 ± 0.51
TTGAATACATATATATGTACATATTCTATGGTTAGA [XGTACX_site4088] | 8.86 ± 0.36
CAAGGACAATTTACAAACATAATATATGTATATATA [TGCATGCA_negctrl_site5] | 8.66 ± 0.55
AATATATATTCATGTGTACACACAAAAAAAAATAAA [CACACA_site8690] | 9.56 ± 0.4
CCTATAATTAGGGGTAGTACACAAAAAAAAAAAAAA [XGTACX_site6396] | 8.59 ± 0.52
TTAAAAAAGAATTGTGCACACACAAAAAATGTTCAT [CACACA_site1102] | 9.12 ± 0.45
AATTCCTTATACAATTGTACATAAAAAGAATAAAAA [XGTACX_site1343] | 8.6 ± 0.42
TTTTTTTTACATGAACGTACATAATATATTTTATAA [XGTACX_site5249] | 8.45 ± 0.41
TGGTGTTTTTTTTAATGTACTTATAAAATAATACAT [XGTACX_site6574] | 8.7 ± 0.32
ATGTAAAAATAAAGATGTACATGTATATATATATAT [XGTACX_site5193] | 9.88 ± 0.46
AATCAAATATTTAAATGTACTCAAGAAGGCTTAATC [XGTACX_site6907] | 8.74 ± 0.29
AAAAAATATTTTAGTGGTACATTTGTAGCTCTCAAA [XGTACX_site4859] | 8.51 ± 0.52
ATAACATGAACATATGTTACACAAACATACATACAT [XGTACX_negctrl_site365] | 9.13 ± 0.26
TATGAAGACACAAATACACACACTCAAAAAAAAAAA [CACACA_site2660] | 9.41 ± 0.44
AAAAATATAATATAATGTACACAAAAAAAAAAAATC [XGTACX_site1427] | 8.98 ± 0.54
GAAAAAAAAAAAAAAAAACACACGGTACATTCAAAG [CACACA_site303] | 8.83 ± 0.55
AAAAAGAAGATGCAAACATGCACACAGAAAAAAAAA [TGCATGCA_site375] | 9.09 ± 0.59
AAAAAAAAAAAAATTACACACATACAGATAATAATA [CACACA_site5244] | 9.07 ± 0.4
TAATTTTTTTTTTTTTTTTTTTTTTTTTTTTTTTTA [CACACA_negctrl_site1218] | 8.16 ± 0.55
TTTTCATTCCACAACGCACACCCATTTAAAAAAAAA [CACACA_site1377] | 8.81 ± 0.26
CTATTATAAAAATGATGTACACTTATATATACATAT [XGTACX_site6087] | 8.87 ± 0.53
TTTTTTTTTTGAATATGTACTTAAAAAAATTTTTTT [XGTACX_site3851] | 8.35 ± 0.55
TACATACATACATACATACACACATATATATATATA [CACACA_site1996] | 9.88 ± 0.099

Sequence | gcPBM binding intensity (ln)
TACATGTATAATATAATACACACTATATAATATACA [CACACA_site2239] | 8.96 ± 0.38
AAATTATAATTAGGAACACACATATATATATATATA [CACACA_site3098] | 9.78 ± 0.29
TTAATATAAATATGATTTTTGATTCCTATACTATTT [CACACA_negctrl_site752] | 8.59 ± 0.45
TTGTATTCATATGGTTGTACATATTAAAAGTTCTAA [XGTACX_site7255] | 8.47 ± 0.47
ATAAGGTTACAACAAACACACAAAGGAATATACGCA [CACACA_site4090] | 9.35 ± 0.49
AAGAAGAATAGGCGTTGTACGGAATGTAGTAGAGTT [XGTACX_site2430] | 9.26 ± 0.46
ATACGACAAATATAAAGTACAAGCTTGGTTTTTATA [XGTACX_site8103] | 8.88 ± 0.59
AATTATGGGGAAAAGACACACATATATATATATATA [CACACA_site2589] | 9.84 ± 0.085
TATGCAAGGAACCACACACACACACGGAAATGTATA [CACACA_site6490] | 9.95 ± 0.43
ATTCTATAGAAACACACACACATGCATGCACCTATA [CACACA_site107] | 9.91 ± 0.33
TTATATATATATGTATGTACTTATAACTTTTATTAG [XGTACX_site3190] | 8.73 ± 0.42
TTCTTTTTTTTCAGTTGTACTTATAAGAAAGAAAAA [XGTACX_site4028] | 8.01 ± 0.23
TTTATTTTTAAAGGCACACACATTTTTATTTTTAAA [CACACA_site2021] | 8.77 ± 0.49
TTTATTTATAGAATTACACACATATATACACAAATG [CACACA_site7338] | 8.97 ± 0.35
TTATTATAAATAGGTAGTACATTTTGAACAAATATT [XGTACX_site8866] | 8.43 ± 0.45
ATATATATAACAAAAGTGCATTAAGGGGATGCTATA | 8.82 ± 0.49
AATATAAATATAGGAAATGTAGTTAAAAGGTGTATG [CACACA_negctrl_site1233] | 8.82 ± 0.59
TTTTATATATTCAATTGTACATGTATTTTTTTTTTT [XGTACX_site3584] | 8.82 ± 0.5
CAAAGACACAAACACACACACACATACATACATACA [CACACA_site453] | 10.3 ± 0.42
TATGGGTATGTATTCACACATAACAAAAATATCAAA [CACACA_site5059] | 8.87 ± 0.49
ATATATATATATAACACACGCAAAAAAATTAAATAA [CACACA_site1400] | 9.16 ± 0.38
TATACTGATAAAAAAAGTACTAGAGTTTGTAAAAAT [XGTACX_site3934] | 8.63 ± 0.49
CACAAGAAAGTTCACACACACACATATATATATATA [CACACA_site6009] | 9.93 ± 0.62

Sequence | gcPBM binding intensity (ln)
TTATATGTCAATTTGCGTACATACATAATTACATAT [XGTACX_site1546] | 9.01 ± 0.44
AATTTTAATTTTTTGACACACATATAATATATATAT [CACACA_site3978] | 8.88 ± 0.46
ATAAATTTACTTGATTGTACATTTCTTAGTTGTATT [XGTACX_site3057] | 8.95 ± 0.47
GGTATACTCAAGTATACACACATATATATATATATA [CACACA_site5746] | 9.64 ± 0.49
AAAATATATTAAGGCACACACATACAGATATATATA [CACACA_site5951] | 9.46 ± 0.41
TACATACACAAATACACACACAAATACATACCCAAA [CACACA_site4550] | 9.74 ± 0.2
TTTTTTCTTTTTTTTTTTTTTTTCTTTTTTTTTTTT [GTGCAC_negctrl_site196] | 8.36 ± 0.55
TACGTGAAATTATATACACACATAAATATGGGTGTA [CACACA_site5687] | 8.88 ± 0.37
TACATGATAGATCACACACACATATAAATATATATA [CACACA_site5562] | 9.45 ± 0.43
TAAAATAACTCACAAAGTACAAAAATAAGCATATGA [XGTACX_site7046] | 8.89 ± 0.47
ACATAAGACACAAATACACACAAAAATATATAACAA [CACACA_site4082] | 9.44 ± 0.37
AACAATATGGATGTATGTACACATATAGAACGTTAT [XGTACX_site7142] | 9.34 ± 0.59
TATGCATTTATGCATTGTACTTTTATAGATTCCACC [XGTACX_site7121] | 8.59 ± 0.49
TACAAAAAAAAAGAACGTACAAAAAATTTCAAAAAT [XGTACX_site5860] | 8.76 ± 0.51
GAAATTTTATTACTTTTACACACCTATATATTATTC [CACACA_site9076] | 9.04 ± 0.5
ATATTATATATACACGCACACACACTAATATATATA [CACACA_site9092] | 9.67 ± 0.14
ATGAACGGAAAAATATATATAAATATATATATCATG [XGTACX_negctrl_site342] | 8.78 ± 0.4
TATGTATATATATTAACACACAAAAAAAAAAAAAAA [CACACA_site1812] | 8.84 ± 0.38
TTAAACTATACCAAAACACACATACAAAATATAAAA [CACACA_site5494] | 9 ± 0.47
AAATATATATTCATGTGTACACACAAAAAAAAATAA [XGTACX_site4552] | 9.48 ± 0.47
